Results on 88 sequences are retold here after the supplement of paper PMC11417369.

Some of the results follow.

The test system of the assay is PfHDP1 homeodomain (GST-tagged). The experiment in a line: gcPBM binding intensity (ln(normalized median fluorescence intensity)); higher = stronger DNA binding. In a few lines:
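An Agilent 4 × 180k array of primer-extended double-stranded 36-bp intergenic genomic probes, with negative controls, was incubated for 1 h with GST-tagged P. falciparum DNA-binding domains expressed in E. coli. Alexa488 anti-GST antibody detected bound protein, scanned at 488 nm. Binding intensity is the highest Masliner-normalised natural-log median intensity across replicate spots of either probe orientation.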
Consider “AATGTACGCATATACACACACATAAATAGATACGTA [CACACA_site3406]”, for which the “gcPBM binding intensity (ln)” value stood at 6.59.
The value for “GACCCCATATACATATGTACATACATAATATATATA [XGTACX_site1817]” was 7.25.
The value for “TTTTTATAACAGCTTAGTACATATAAGAATTCTTGC [XGTACX_site5890]” was 6.53; that for “CCTTTTTATTTTTGTAGTACTACATATACATATCTG [XGTACX_site7791]” was 7.15.
The same measure for “AAAAAAAAAAAAAATAAATAAATAAATAAATATATA [GTGCAC_negctrl_site382]”: 6.13; for “TATATATAAAAAAAAAGTACATATAATATAATATTT [XGTACX_site7902]”: 6.27; for “GGTGTTTTTCACAGATGTACACAAATAAAAAAGAAA [XGTACX_site4454]”: 7.11.
In the case of “AAATGGACAGTATAAAAATGGAGAATATAAAAATTT [CACACA_negctrl_site889]”, the “gcPBM binding intensity (ln)” value turned out to be 6.53.
The value for “TATTCAAAGAAAAACTGTACGTGTAGCAAACGTCAT [XGTACX_site7713]” was 6.94; that for “ATATTAAAAAAATATAAACACACAAAAAAAAAATAT [CACACA_site8283]” was 6.95; that for “AGTATTTTGTTTATCACACATATTGGAATTTTCAAT [CACACA_site4686]” was 6.65.
The same measure for “AAAATTATACACACACGTACATATAAATAGAAATAT [XGTACX_site1753]”: 7.07.
The same measure for “AAAATAATTCAATGTAGTACAATACAAATTGAGAGA [XGTACX_site5991]”: 6.46; for “TTTGTTGGTATGGTTACACACATTTAGGAAATAAAA [CACACA_site1411]”: 6.51.
Take “TCTTATAAATTAAATATAAAAAAAAAAAAAAAAAAA [XGTACX_negctrl_site77]”: the “gcPBM binding intensity (ln)” value worked out at 6.22.
The same measure for “ATGCAATAATAATGGAGTACATATTAATATTGATCA [XGTACX_site2312]”: 6.89.
The same measure for “AAAAAATATATTAAGGCACACACATACATATATATA [CACACA_site9239]”: 6.98; for “CCTTTTGGATGAAAGTGTACAGGTGAGAAAAATTCC [XGTACX_site3358]”: 6.48.
The same measure for “AAAACAAATAGACACGCACACAAAAAAAAAAAAAAA [CACACA_site801]”: 6.44; for “TTAATTTCGAATTATTGTACATTAATATATCTACAG [XGTACX_site3314]”: 6.41.
Regarding “GAATAAAAAAAAAAAAAAATTTATTTTATAATAAAA [CACACA_negctrl_site1514]”, the “gcPBM binding intensity (ln)” value was 5.82.
For “ATATATATATATATATGTACATAAATATAAATTTAA [XGTACX_site8715]”, the “gcPBM binding intensity (ln)” value stood at 9.42.
The value for TCGAATATCTTATAGGTGCATCATAAATACATATGT was 9.58.
The value for “AATGTAAAGAACAAAACATGCAACTAGTTTACTTTT [TGCATGCA_site841]” was 6.61; that for “TAATTCTTTATTTTTCGTACGTAAAACAAAAAATAT [XGTACX_site862]” was 6.28; that for “TAAGTATATAAAATTACACACTATTTTTTTTCAAGT [CACACA_site1792]” was 6.06.
The value for “TAGAAAAAAGATAGCACACACGGCCCAATATATATA [CACACA_site5354]” was 6.82; that for “ATTCTTAAATGTGGTTGTACATATTATCACCTTTAA [XGTACX_site8188]” was 6.3; that for “TTTTTAATTTTATATACACACATAAAAGATATGAAG [CACACA_site7470]” was 6.63.
For the sequence “CGCAAAACAATGATACGTACATATATATATATATAT [XGTACX_site5883]”, the “gcPBM binding intensity (ln)” value is 9.24.
The value for “ATATTCTCTTAAATATGTACGTATGTATATATATAT [XGTACX_site5885]” was 8.87; that for “ATATTTATTTATATCATACACACTAATATGTATATT [CACACA_site7576]” was 6.55; that for “TTTTAAAACAATGAGATTCCTTTCTTTTTTTCTTTT [CACACA_negctrl_site1320]” was 5.64.
The value for “CTTAATGATAAATACATACACACAAAAAATAATATA [CACACA_site2577]” was 6.68; that for “TATCCCTTAGAATACACACCCATATGAGGGTGAACT [CACACA_site5610]” was 6.2.
The value for “AAGAAAATGTAGAATTAGAAATAAATGAAGAAATGA [TGCATGCA_negctrl_site548]” was 6.54; that for “TATATGTTTAATTTCACACACAAATATACATTTTAA [CACACA_site4171]” was 6.48.
For “CATTAGCATTTTATTACACACAATAAATTAGAAGTA [CACACA_site7837]”, the “gcPBM binding intensity (ln)” value was found to be 6.75.
The same measure for “ACACATACAACGTGGTGTACAAATAATTATAATCAA [XGTACX_site2287]”: 6.8; for “AATCTTTGTAATAAAAGTACATTAATTTTATTAATA [XGTACX_site8325]”: 5.97; for “TTTTAAATACTTTATTGTACATTATATATATATATA [XGTACX_site7021]”: 8.85.
The value for “TAAGTATATATATTTACACACATTTGTTTTTTTTTA [CACACA_site3784]” was 6.56; that for “AAAAAAAAAAAAAAAAGTACATATAATAAATAATGA [XGTACX_site7931]” was 6.62.
The value for “TATATCTTAATATTTACACACATGCGCACCCATAAA [CACACA_site5349]” was 7.52; that for “ATAAATGAACAAGTGGCACACACACCGTATAACTAA [CACACA_site9047]” was 6.73.
With “ATCCGTGGGTGAAATACACACATGATAATGTGAATG [CACACA_site4662]”, the “gcPBM binding intensity (ln)” value turned out to be 6.26.
The same measure for “AATTATGTGTGTCAATGTACACGATTTACATAATAT [XGTACX_site5150]”: 6.33.
The same measure for “TGAAAAATATAAGGTTGTACTTACATCGGGAATAAT [XGTACX_site4701]”: 6.63; for “AATATATGGTTTCTTGATATTAAATTCAATTTAATG [CACACA_negctrl_site69]”: 6.42; for “TATATTAAAATAATCACACACATCAATTAATGGTAA [CACACA_site1234]”: 6.26.
The same measure for TTTGAATACTGAATGGTGCAAATTGTTCTCCCCATG: 10.5.
For the sequence “AGTATAACTTTTGCGCGTACACACATTTATCCTCTT [XGTACX_site429]”, the “gcPBM binding intensity (ln)” value stood at 7.8.
The same measure for “TACAAATGCGTATGTCAATATATGGAGAAATAAATA [TGCATGCA_negctrl_site290]”: 6.44.
The same measure for “TGTATATGGTTTGTGCAAAAATTTATTAATGTGTAA [TGCATGCA_negctrl_site374]”: 10.1; for “TATAATAATATTTACACACGCATATGTTATATATAT [CACACA_site1477]”: 6.77.
For “ATTTGTATATACATATGTACACATGTAGGCTCATAA [XGTACX_site1709]”, the “gcPBM binding intensity (ln)” value was 6.92.
With “TTTCGTAAACTTTATGCACACACATATACATATTTC [CACACA_site8146]”, the “gcPBM binding intensity (ln)” value was determined as 10.2.
The same measure for “TTTTTTTTTACTAACTGTACTAAAGAAAAAAAAGGG [XGTACX_site3519]”: 6.57.
The same measure for “ATAAAGGAATTTTATACACACAACATATATATATAT [CACACA_site2861]”: 9.06.
The same measure for “ATATAAACACTGAATGCATGCACATATATATATATA [TGCATGCA_site940]”: 9.37.
“GGGGGGGGAGGGTGAATACACACGTAATAATCATAA [CACACA_site1716]”: the “gcPBM binding intensity (ln)” value is 9.28.
Regarding “CGTATTATTATATAAACACACAAGGGGGCATGTATA [CACACA_site745]”, the “gcPBM binding intensity (ln)” value came out at 7.74.
As for “ATGTGTATATGTGTGGGTACTTAATTTTTTTCTTTA [XGTACX_site5351]”, the “gcPBM binding intensity (ln)” value amounted to 7.17.
As for “TATCTTTTTTTTAATACACACAAATATATGAAAGTA [CACACA_site4161]”, the “gcPBM binding intensity (ln)” value was 6.64.
The value for “GTTATAATTGAACTAGTGCATAAATATATTTTAATT [GTGCAC_site9851]” was 9.15.
The same measure for “AATTCTGGCAAAATAACACACACATATATTTTATAT [CACACA_site9064]”: 6.58; for “AGGATATATATATTCACACACACATGGAAATATATA [CACACA_site383]”: 6.39.
The value for “ATATATATTTTATATTGTACTTATTATTTTTAGGGC [XGTACX_site723]” was 6.12; that for “TATGAATATCTATACACACACATATAAATACACGCT [CACACA_site6853]” was 6.7; that for “TTATATATTTTTAGGTGTACTTTTTTTTTTTTTTTT [XGTACX_site8164]” was 6.4.
As for “TATTTTTTGAAAAGTTCACACATCCAACTCGAGTTG [CACACA_site4412]”, the “gcPBM binding intensity (ln)” value came out at 6.41.
For “AAAAAAAAAAAAAATACACACATATTTTATAGGGGA [CACACA_site3261]”, the “gcPBM binding intensity (ln)” value was 6.41.
Consider “AAAATAATGAAATGAAAAAAAAAAATTTAGATTCTA [CACACA_negctrl_site1385]”, for which the “gcPBM binding intensity (ln)” value was 6.04.
The value for “GTCATATATTTATGTACACACATATATATATTTATA [CACACA_site4911]” was 6.44; that for “TAGATGTAAGTACATACACACATATATAAATAAATA [CACACA_site8528]” was 6.4; that for “CTAATTGTTATTTTGTGTACTTATCATTCGAAATAT [XGTACX_site7963]” was 6.57.
The same measure for “AAAAAACAAATAAGTAAACACACATATATAATATAT [CACACA_site8830]”: 6.68; for “ATATATATTTTAATTACACACAAAAAAAAAAAAAAA [CACACA_site4778]”: 6.42; for “TATTCTAAGATAAGTGGTACTTATATATAATATATA [XGTACX_site8316]”: 6.31.
As for “TATTTTTAATTTTTTAATGGTTTAATATTTTTATAT [CACACA_negctrl_site1186]”, the “gcPBM binding intensity (ln)” value worked out at 6.01.
The same measure for “ATATATATATATATATGTACATAAACATATATATAT [XGTACX_site1064]”: 9.35; for “TCTTTAGCTTCTTCTTTTTTTTTTTTTTTTTTTTTT [XGTACX_negctrl_site518]”: 6.98.
The value for “TATAATATACTATGTGGTACATATATATATTTATAG [XGTACX_site4556]” was 6.1; that for “ATATATAATATTGGTGGTACAAGGGTATTTTATATT [XGTACX_site8215]” was 6.6.
The same measure for “GTATAATTGGAAATTACACACCTTAGAATGTAACAT [CACACA_site4059]”: 6.09; for “ATTATAATATATATATGTACATATATATATAATACT [XGTACX_site5092]”: 6.48.
Turning to “TCATTTATTTTTCTTTGTACACAAAAGTTTTTATGT [XGTACX_site690]”, the “gcPBM binding intensity (ln)” value worked out at 6.78.
For “CATATGTTATATGTAGTGCATTACTATAGGATTTAT [GTGCAC_site9860]”, the “gcPBM binding intensity (ln)” value stood at 9.47.
